From the supplement of paper PMC9174493
The other results are listed elsewhere or left out. Single values of this set are uncertain. Values with irradiation are relative to irradiated vehicle.
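Also: viability correction based on the alamar blue assay, with concentrations leaving 10% survival or less dropped.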

The compounds below were run on A549-Dual (assay: NF-kB reporter (SEAP) activity, viability-corrected, relative to vehicle (fold change vs vehicle); higher = more activation of STING-IRF / NF-kB immune response reporter). Conditions: 10 µM; irradiation: 8 Gy/4 fr.
With `CC1=C(CC(=O)O)c2cc(F)ccc2/C1=C\c1ccc(S(C)=O)cc1` (stereo unspecified) [Sulindac] the NF-kB reporter was 0.967.
`C1N2CN3CN1CN(C2)C3` [Methenamine] was tested, and the NF-kB reporter was 1.56.
`COc1ccc2cc(C(C)C(=O)[O-])ccc2c1.[Na+]` (stereo unspecified) [Naproxen Sodium] was tested, and the NF-kB reporter was 0.978.
Compound `Cc1ccc(Cl)c(Nc2ccccc2C(=O)[O][Na])c1Cl` [Meclofenamate Sodium] has an NF-kB reporter of 1.08.
`O=C(OCCOCCO)c1ccccc1Nc1cccc(C(F)(F)F)c1` [Etofenamate] gave an NF-kB reporter of 0.771.
`O=C([O-])c1cc(N=Nc2ccc(O)c(C(=O)[O-])c2)ccc1O.[Na+].[Na+]` [Olsalazine Sodium] showed an NF-kB reporter of 0.944.
Work on `CC(=O)Nc1ccc(OC(=O)c2ccccc2OC(C)=O)cc1` [Benorylate] yielded an NF-kB reporter of 1.06.
In the case of `CO/N=C(\C(=O)NC1C(=O)N2C(C(=O)OCOC(=O)C(C)(C)C)=C(C)CSC12)c1csc(N)n1.Cl` (stereo unspecified) [Cefetamet pivoxil hydrochloride], the NF-kB reporter was 0.929.
`CCC(C(=O)O)c1ccc(N2Cc3ccccc3C2=O)cc1` (stereo unspecified) [Indobufen] gave an NF-kB reporter of 1.
Compound `CS(=O)(=O)O.Cc1ccc(NC(=O)c2ccc(CN3CCN(C)CC3)cc2)cc1Nc1nccc(-c2cccnc2)n1` [Imatinib Mesylate (STI571)] has an NF-kB reporter of 0.961.
`CC(C(=O)O)c1ccc(C(=O)c2ccccc2)s1` (stereo unspecified) [Tiaprofenic acid] was tested, and the NF-kB reporter was 1.08.
`CCc1nc(N)nc(N)c1-c1ccc(Cl)cc1` [Pyrimethamine] showed an NF-kB reporter of 1.01.
`COc1cc(C2c3cc4c(cc3C(OC3OC5COC(C)OC5C(O)C3O)C3COC(=O)C23)OCO4)cc(OC)c1O` (stereo unspecified) [Etoposide] gave an NF-kB reporter of 0.858.
For `CN(C)CCC(c1ccc(Br)cc1)c1ccccn1.O=C(O)/C=C\C(=O)O` (stereo unspecified) [Brompheniramine hydrogen maleate], the NF-kB reporter was 1.01.
`CC12CCC3c4ccc(O)cc4CC(CCCCCCCCCS(=O)CCCC(F)(F)C(F)(F)F)C3C1CCC2O` (stereo unspecified) [Fulvestrant] gave an NF-kB reporter of 0.81.
With `O=C([O-])CC(O)(CC(=O)[O-])C(=O)[O-].O=C([O-])CC(O)(CC(=O)[O-])C(=O)[O-].[BiH6+3].[K+].[K+].[K+]` [Gastrodenol] the NF-kB reporter was 1.72.
For `CCCCC1(COC(=O)CCC(=O)O)C(=O)N(c2ccccc2)N(c2ccccc2)C1=O` [Suxibuzone], the NF-kB reporter was 1.54.
Compound `O=C(O)Cc1ccccc1Nc1c(Cl)cccc1Cl.OCCN1CCCC1` [Diclofenac Epolamine] has an NF-kB reporter of 0.575.
For `Cl.N=C1CCCN1Cc1[nH]c(=O)[nH]c(=O)c1Cl.O=c1[nH]c(=O)n(C2CC(O)C(CO)O2)cc1C(F)(F)F.O=c1[nH]c(=O)n(C2CC(O)C(CO)O2)cc1C(F)(F)F` (stereo unspecified), the NF-kB reporter was 0.964.
With `NC(CO)(CO)CO` [Trometamol] the NF-kB reporter was 0.962.
Compound `COc1ccc2c(c1)c(CC(=O)O)c(C)n2C(=O)c1ccc(Cl)cc1` [Indomethacin] has an NF-kB reporter of 1.15.
`Cn1cnc([N+](=O)[O-])c1Sc1ncnc2nc[nH]c12` [Azathioprine] gave an NF-kB reporter of 0.682.
`NCCNc1ccc(NCCN)c2c1C(=O)c1ccncc1C2=O.O=C(O)/C=C\C(=O)O.O=C(O)/C=C\C(=O)O` [Pixantrone Maleate] gave an NF-kB reporter of 0.945.
In the case of `CC(=O)Oc1cccc2c1C(=O)c1c(OC(C)=O)cc(C(=O)O)cc1C2=O` [Diacerein], the NF-kB reporter was 0.956.
Compound `CNCC(O)c1ccc(O)c(O)c1.O=C(O)C(O)C(O)C(=O)O` (stereo unspecified) [Epinephrine bitartrate] has an NF-kB reporter of 1.07.
`CC1(C(=O)O)CCC2(C)CCC3(C)C(=CC(=O)C4C5(C)CCC(OC6OC(C(=O)O)C(O)C(O)C6OC6OC(C(=O)O)C(O)C(O)C6O)C(C)(C)C5CCC43C)C2C1.N.N` (stereo unspecified) [Diammonium Glycyrrhizinate] gave an NF-kB reporter of 1.31.
`CCCCCCCCCCCCCCCCCCOP(=O)([O-])OC1CC[N+](C)(C)CC1` [Perifosine (KRX-0401)] gave an NF-kB reporter of 0.534.
`COc1c2occc2cc2ccc(=O)oc12` [Methoxsalen] showed an NF-kB reporter of 1.05.
In the case of `O=C(O)CCCN1CCC(OC(c2ccc(Cl)cc2)c2ccccn2)CC1` (stereo unspecified) [Bepotastine], the NF-kB reporter was 1.04.
Compound `CN(C)CCCOc1nn(Cc2ccccc2)c2ccccc12.Cl` [Benzydamine HCl] has an NF-kB reporter of 0.968.
`CC(C(=O)O)c1ccc2c(c1)[nH]c1ccc(Cl)cc12` (stereo unspecified) [Carprofen] showed an NF-kB reporter of 0.738.
